{"source": "paper PMC4336329", "about": "(PLoS ONE, 2015)", "note": "Among all 310,000 compounds or so, about 14,000 (4.5%) showed an effect of 50% or more. The effect is printed as a negative number. The list shows a part of the results.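 Also: peak tail current of the secondary pulse compared with the same well before compound.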"}
{"target": "human ether-à-go-go-related gene (hERG) potassium channel (human, UniProt Q12809)", "sequence (Q12809 whole entry, looked up)": "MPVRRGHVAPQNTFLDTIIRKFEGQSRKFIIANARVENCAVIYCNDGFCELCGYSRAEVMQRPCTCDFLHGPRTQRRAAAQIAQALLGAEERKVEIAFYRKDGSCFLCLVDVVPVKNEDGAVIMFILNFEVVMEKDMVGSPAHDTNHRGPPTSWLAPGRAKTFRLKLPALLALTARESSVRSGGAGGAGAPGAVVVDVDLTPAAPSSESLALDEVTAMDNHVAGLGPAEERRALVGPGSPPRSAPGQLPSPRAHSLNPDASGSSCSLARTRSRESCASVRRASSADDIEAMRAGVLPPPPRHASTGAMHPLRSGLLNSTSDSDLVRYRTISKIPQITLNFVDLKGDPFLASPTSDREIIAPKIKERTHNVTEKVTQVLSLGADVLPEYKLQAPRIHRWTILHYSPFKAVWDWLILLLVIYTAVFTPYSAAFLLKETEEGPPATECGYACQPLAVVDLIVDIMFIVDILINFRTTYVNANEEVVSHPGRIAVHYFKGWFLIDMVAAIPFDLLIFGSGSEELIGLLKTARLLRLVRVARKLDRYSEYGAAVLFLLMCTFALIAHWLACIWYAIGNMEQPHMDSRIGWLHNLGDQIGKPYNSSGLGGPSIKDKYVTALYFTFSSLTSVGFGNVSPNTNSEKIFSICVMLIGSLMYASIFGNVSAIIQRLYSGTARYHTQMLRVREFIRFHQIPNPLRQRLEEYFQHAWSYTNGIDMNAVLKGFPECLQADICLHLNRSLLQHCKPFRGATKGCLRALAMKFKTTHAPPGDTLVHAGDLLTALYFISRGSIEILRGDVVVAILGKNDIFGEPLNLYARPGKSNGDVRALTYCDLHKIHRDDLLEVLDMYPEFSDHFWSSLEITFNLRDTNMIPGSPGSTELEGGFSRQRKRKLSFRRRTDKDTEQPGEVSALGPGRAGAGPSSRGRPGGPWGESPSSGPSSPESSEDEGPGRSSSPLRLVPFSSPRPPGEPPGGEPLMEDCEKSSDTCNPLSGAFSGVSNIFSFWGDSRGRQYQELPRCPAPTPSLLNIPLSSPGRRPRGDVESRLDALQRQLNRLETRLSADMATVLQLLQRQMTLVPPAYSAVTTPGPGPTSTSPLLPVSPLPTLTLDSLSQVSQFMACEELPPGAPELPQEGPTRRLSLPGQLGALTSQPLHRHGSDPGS", "assay": "primary screen, population patch clamp on CHO cells stably expressing hERG", "units": {"hERG current change (%, negative = inhibition) at 10uM": "%"}}
{"smiles": "CCCN1CC(O)=C(C#N)C1=O", "hERG current change (%, negative = inhibition) at 10uM": 3}
{"smiles": "Cc1ccc(NC2OC(C(O)CO)C(O)C2O)cc1[N+](=O)[O-]", "note": "(stereo not shown)", "hERG current change (%, negative = inhibition) at 10uM": -1.06}
{"smiles": "COC(=O)c1ccc(NC(=O)C(=O)c2cn(CC(=O)N3CCOCC3)c3ccccc23)cc1", "hERG current change (%, negative = inhibition) at 10uM": -8.37}
{"smiles": "O=C(/C=C\\Nc1ccc2c(c1)OCO2)c1ccccn1", "hERG current change (%, negative = inhibition) at 10uM": 11}
{"smiles": "Cn1c(=O)n(CC(=O)N2CCC3(CC2)OCCO3)c(=O)c2ccccc21", "hERG current change (%, negative = inhibition) at 10uM": -1.21}
{"smiles": "Cc1ccc(C)c(S(=O)(=O)NC2CCS(=O)(=O)C2)c1", "note": "(stereo not shown)", "hERG current change (%, negative = inhibition) at 10uM": -12.1}
{"smiles": "COC(=O)[C@@H]1C[C@@]2(O)[C@H](O)[C@H](O)[C@H](O)C[C@H]2N1Cc1cc(OC)cc(OC)c1", "hERG current change (%, negative = inhibition) at 10uM": 13.1}
{"smiles": "O=C1c2oc3ccccc3c(=O)c2C(c2ccc(O)cc2)N1c1nccs1", "note": "(stereo not shown)", "hERG current change (%, negative = inhibition) at 10uM": 9.09}
{"smiles": "CSc1nnc(N2C(=O)C(O)=C(C(=O)c3ccco3)C2c2ccccc2F)s1", "note": "(stereo not shown)", "hERG current change (%, negative = inhibition) at 10uM": 5.74}
{"smiles": "COc1ccc2cc3c(N)nn(C(=O)C4CCC(C(C)(C)C)CC4)c3nc2c1", "note": "(stereo not shown)", "hERG current change (%, negative = inhibition) at 10uM": -6.56}
{"smiles": "COc1cccc(CNC(=O)CCC2CCCN(C(=O)CCn3cncn3)C2)c1", "note": "(stereo not shown)", "hERG current change (%, negative = inhibition) at 10uM": 29.4}
{"smiles": "O=S(=O)(Nc1ccc(-n2cccc2)cc1)c1ccc(Cl)cc1Cl", "hERG current change (%, negative = inhibition) at 10uM": 10.5}
{"smiles": "O=C(OCC(=O)c1ccc([N+](=O)[O-])cc1)/C(=C/c1ccc(Cl)cc1)NC(=O)c1ccccc1", "hERG current change (%, negative = inhibition) at 10uM": -63.3}
{"smiles": "COc1cc(-c2n[nH]c(=S)n2Cc2ccccc2)cc(OC)c1OC", "hERG current change (%, negative = inhibition) at 10uM": 6.36}
{"smiles": "COc1ccc(C2c3ccc(O)cc3Oc3ncn4nc(-c5cccnc5)nc4c32)cc1OC", "note": "(stereo not shown)", "hERG current change (%, negative = inhibition) at 10uM": -56.9}
{"smiles": "COC(=O)c1cc(C(=O)Nc2nnc(CC(C)(C)C)s2)cc([N+](=O)[O-])c1", "hERG current change (%, negative = inhibition) at 10uM": -2.08}
{"smiles": "C=C(C)C1Cc2c(C)nn(-c3nc(C)cc(C)n3)c2C1", "note": "(stereo not shown)", "hERG current change (%, negative = inhibition) at 10uM": 11.5}
{"smiles": "Cc1ccc(OCC(=O)N2CCc3ccccc32)cc1", "hERG current change (%, negative = inhibition) at 10uM": 15.9}
{"smiles": "O=C(NCc1ccccn1)Nc1ccc(Cl)cc1", "hERG current change (%, negative = inhibition) at 10uM": 13.9}
{"smiles": "c1ccc(-c2nnc3n2NC(c2ccc4c(c2)OCO4)S3)cc1", "note": "(stereo not shown)", "hERG current change (%, negative = inhibition) at 10uM": 11.1}
{"smiles": "Oc1c(Cl)cc(Cl)cc1CN1CCN(Cc2ccccc2)CC1", "hERG current change (%, negative = inhibition) at 10uM": -12}
{"smiles": "CN(C)C(CNC(=O)c1cc2ccccc2oc1=O)c1ccccc1", "note": "(stereo not shown)", "hERG current change (%, negative = inhibition) at 10uM": -12.7}
{"smiles": "O=C1OC(Cc2ccccn2)C(=O)C1=C1SCCS1", "note": "(stereo not shown)", "hERG current change (%, negative = inhibition) at 10uM": 8.1}
{"smiles": "O=C1C(=O)N(c2nccs2)C(c2ccccc2)/C1=C(\\O)c1ccc2c(c1)OCCO2", "note": "(stereo not shown)", "hERG current change (%, negative = inhibition) at 10uM": 8.03}
{"smiles": "CCC(=O)CC(c1ccc([N+](=O)[O-])cc1)c1c(O)c2ccccc2oc1=O", "note": "(stereo not shown)", "hERG current change (%, negative = inhibition) at 10uM": 4.98}
{"smiles": "O=C(c1cccc(C(F)(F)F)c1)C1CCCN(C(=O)c2cc(C3CC3)[nH]n2)C1", "note": "(stereo not shown)", "hERG current change (%, negative = inhibition) at 10uM": -38.9}
{"smiles": "CC(=O)Cc1nsc(NC(=O)c2ccc(F)cc2)n1", "hERG current change (%, negative = inhibition) at 10uM": 23.5}
{"smiles": "CCOc1cc(C)c(Cl)cc1S(=O)(=O)NCC1CCCO1", "note": "(stereo not shown)", "hERG current change (%, negative = inhibition) at 10uM": 1.35}
{"smiles": "Cc1ccc(SC(=O)COc2ccccc2C)cc1", "hERG current change (%, negative = inhibition) at 10uM": 6.43}
{"smiles": "CN(CC(=O)OCC(=O)Nc1ccccc1)S(=O)(=O)c1ccc(Cl)cc1", "hERG current change (%, negative = inhibition) at 10uM": -19.9}
{"smiles": "Cc1ccc(S(=O)(=O)c2c(COC(=O)c3ccccc3Cl)c(-c3ccccc3)nn2C)cc1", "hERG current change (%, negative = inhibition) at 10uM": 2.56}
{"smiles": "CCOc1cc(/C=N/n2c(COc3ccccc3)n[nH]c2=S)ccc1O", "hERG current change (%, negative = inhibition) at 10uM": 24.4}
{"smiles": "CN(C)/C=C1/N=C(c2ccccc2)OC1=O", "hERG current change (%, negative = inhibition) at 10uM": -4.75}
{"smiles": "CNC(=O)c1cccn(Cc2cc(C(F)(F)F)cc(C(F)(F)F)c2)c1=O", "hERG current change (%, negative = inhibition) at 10uM": 4.19}
{"smiles": "O=C(COC(=O)c1nc(Cl)ccc1Cl)NCc1ccccc1", "hERG current change (%, negative = inhibition) at 10uM": 10.7}
{"smiles": "N#Cc1ccccc1NC(=O)COc1ccc2c(c1)OCO2", "hERG current change (%, negative = inhibition) at 10uM": 5}
{"smiles": "COc1ccc(/C=N/NC(=O)CCCOc2ccc(Cl)cc2Cl)cc1[N+](=O)[O-]", "hERG current change (%, negative = inhibition) at 10uM": -14.8}
{"smiles": "O=C(CCCN1C(=O)/C(=C/c2ccccc2Cl)SC1=S)NNC(=O)c1ccccc1", "hERG current change (%, negative = inhibition) at 10uM": -7.83}
{"smiles": "Cc1cccc(NC(=S)NC(=O)c2ccc(-c3ccccc3)cc2)n1", "hERG current change (%, negative = inhibition) at 10uM": 40.1}
{"smiles": "CS(=O)(=O)N1CCN(C(=O)c2cc(-c3ccncc3)nc3ccc(Cl)cc23)CC1", "hERG current change (%, negative = inhibition) at 10uM": -12.8}
{"smiles": "CC(=O)c1ccccc1NC(=O)COc1ccc(N(C)S(=O)(=O)c2ccc(C)c(C)c2)cc1", "hERG current change (%, negative = inhibition) at 10uM": -20}
{"smiles": "COc1ccc(CCNC(=O)Cn2nnc3ccccc3c2=O)cc1", "hERG current change (%, negative = inhibition) at 10uM": 9.17}
{"smiles": "CC(C)C(=O)Nc1ccc(C(=O)Nc2nnc(C(C)C)s2)cc1", "hERG current change (%, negative = inhibition) at 10uM": 13.2}
